Reference: the supplement of paper PMC3334620
Whole data set: some 33,000 sequences, median “E-score (-0.5 to 0.5)” near -0.011, cut for the highest 2% near 0.28. This is one part of the list.

target: T1, Gcr1 (UniProt P07261); test: PBM E-score (8-mer binding enrichment) (E-score (-0.5 to 0.5)); higher = stronger / more preferred TF binding; most listed sequences are background and not binding sites; conditions: protein concentration: 100 nM; construct: GST-full length
T1 sequence: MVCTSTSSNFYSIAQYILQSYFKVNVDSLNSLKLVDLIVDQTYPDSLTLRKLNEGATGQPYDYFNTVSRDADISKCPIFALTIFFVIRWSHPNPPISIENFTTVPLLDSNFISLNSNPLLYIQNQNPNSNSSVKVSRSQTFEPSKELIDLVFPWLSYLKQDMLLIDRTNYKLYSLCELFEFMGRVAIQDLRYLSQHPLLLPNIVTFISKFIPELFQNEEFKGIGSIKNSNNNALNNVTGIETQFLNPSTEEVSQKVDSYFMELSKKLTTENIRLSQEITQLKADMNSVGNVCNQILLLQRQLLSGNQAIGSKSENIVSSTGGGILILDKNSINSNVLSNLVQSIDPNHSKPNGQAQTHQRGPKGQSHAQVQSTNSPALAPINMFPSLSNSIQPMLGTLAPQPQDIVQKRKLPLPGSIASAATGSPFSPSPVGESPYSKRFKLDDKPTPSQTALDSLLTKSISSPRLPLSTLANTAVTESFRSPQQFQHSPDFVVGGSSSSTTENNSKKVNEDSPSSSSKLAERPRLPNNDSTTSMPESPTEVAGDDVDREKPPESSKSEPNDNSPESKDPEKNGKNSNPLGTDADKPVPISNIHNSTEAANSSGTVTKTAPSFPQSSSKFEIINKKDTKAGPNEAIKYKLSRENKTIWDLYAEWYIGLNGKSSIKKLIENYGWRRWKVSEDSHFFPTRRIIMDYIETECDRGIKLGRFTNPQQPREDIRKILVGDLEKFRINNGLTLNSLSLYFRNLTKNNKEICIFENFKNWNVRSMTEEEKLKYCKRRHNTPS
In short: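 Masliner-normalised scans of fluorescent anti-GST signal were the basis for scoring. That signal came from GST-tagged yeast transcription factors applied at about 100-200 nM to double-stranded universal all-10-mer Agilent arrays on fresh or once-stripped slides. Each ungapped eight-base word, pooled with its reverse complement, received an E-score from the Universal PBM Analysis Suite.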

Sequence	PBM E-score
CTCCACCC	-0.106
GATTGCAC	-0.18
CGAATTGA	-0.0169
AAACGACA	-0.0532
CCTCTGCG	-0.142
AGTATTGA	-0.208
ACGTAAAG	-0.00591
AGATCTGA	-0.0898
TCTGTACA	-0.00473
CCTAGTCC	-0.317
CGCGTGTA	0.0631
ACGCGTCG	-0.147
CGATTTTC	0.108
CATTCTCC	-0.166
AGCTACGA	-0.0486
TCCATCCA	-0.0825
TCCTTCAA	-0.00823
ACGATGTG	0.106
GTCGCTCA	-0.0256
AAGGCGGG	-0.0567
CTCAGCCC	-0.266
GAACACTC	0.082
CTTTCGCC	-0.364
ACAACGCT	-0.0159
AGTAGGTA	-0.0102

Sequence	PBM E-score
GCTGCCGA	0.277
CCGCCTAA	0.0346
GTACTCTA	-0.154
TCCTTCGA	-0.0266
ATAAGGTA	-0.145
GAAAGTTC	-0.0399
GATCGAAA	-0.0376
GAAGATTC	0.219
AAGAGTTC	-0.272
AATATCAA	0.024
AGCTTGGA	-0.105
ACAGGTCC	-0.126
TAACACAA	0.103
AGACAAGA	0.0392
CGGTAGAC	-0.0698
AACGTCCT	0.043
AATTGCGA	0.0612
CCGGCCAG	-0.113
ATTTACAC	0.132
CCCCATTA	-0.0791
GAATGTAC	-0.00553
AAGAACGC	0.00618
CTCGAGCC	0.0479
ATTGGTTG	0.0639
ATAAAAAT	0.125

Sequence	PBM E-score
CTGTAATA	0.193
CCCGGGGA	0.117
GATAGAAC	-0.0492
ATTGCTGA	-0.0468
AGATCTTC	-0.0749
ATCCGGAC	-0.106
AACGTTAA	-0.0454
ATTAGGAA	0.123
AGCGGACT	0.0631
GATTTCCC	-0.177
CGGCTAAC	-0.0949
CAATGTAC	0.127
GGATCAAC	-0.00409
GATGACTA	-0.0312
ATACTAGC	-0.139
GTCGGTGA	-0.195
GATCCCTA	0.145
CACGAAAA	0.00245
ACCTTGTA	0.0466
ATAATATG	0.135
CCCCTGTC	-0.212
CCGTTTTC	0.0901
AACTCCCA	-0.0821
ACACCTTG	0.0177
AGGCCTAA	-0.0235

Sequence	PBM E-score
GACGCACC	0.22
GGATCGAA	-0.0746
CAACCGTA	-0.193
AAATAGCG	0.147
CGCTATCA	-0.0385
AATCCTCA	-0.0389
AAGCTGCC	0.347
CAAAACTA	0.0814
AACCTCTT	0.16
AACGCTAC	-0.116
GCAAATCA	0.0593
ATATCGTC	0.0622
AAGCTCAT	-0.178
GCTCTCAC	-0.288
CCTCACCC	-0.133
AGGATCCA	0.263
ACGCTGCA	0.0243
CCGAGAAC	-0.0067
AGGTCCGG	-0.188
ACAGAACG	-0.0275
CGCCTGCC	-0.106
GCTACCGA	0.0446
CTCCGCTA	-0.0677
AAGTCCGC	-0.0609
CACTGCGG	0.112

Sequence	PBM E-score
CAGAGGCC	-0.0492
TCTCCACA	0.137
AACAATGC	-0.18
ACGAGATA	0.0475
GAAAATCC	0.0586
AAGGACCC	0.104
AAGACCCT	-0.027
GCGCACGA	0.101
GGATATCA	-0.071
GTATGGAC	-0.0746
CCTTAGAG	-0.135
CCGTCGTA	0.00133
CACTTGGC	-0.0971
CCGTAATC	-0.133
AACTCCCC	-0.134
TCTACTCA	-0.0572
CCTATTCA	0.114
ACTCGCAG	-0.0415
TTATAAAA	0.178
GAACTGTC	-0.0473
GAGAGGAC	-0.134
CCTCAGCA	0.0328
CGAACTCG	-0.127
AGGCGATG	0.14
AATTCCCC	0.0615

Sequence	PBM E-score
CACCCGTG	-0.158
CGTGGTTC	0.0376
GTCTATTA	0.0633
CTTTAGAC	0.0624
GGAATGAA	-0.0393
AAGTACAT	-0.0562
TCAGTAGA	-0.0326
AAGTTCGC	-0.0544
ACTGCCCC	-0.166
CTAGGAAG	0.0602
TCCTGTCA	0.221
GCTCAATA	-0.135
CCAGATAC	0.294
ATAAATAG	0.0525
CTGCAGAC	-0.185
GCATTATA	-0.068
AGGCCTAG	-0.214
AGTTCAAA	-0.0376
AACCCTAT	0.0659
CAGAATAA	0.174
CGTCTAAA	0.233
CCGGCATA	0.0787
CTGAGTAC	0.144
GCTCGGCA	0.0791
GGTGCGAC	-0.118

Sequence	PBM E-score
CAATCTAC	-0.0542
CACTATAG	-0.0625
GAGAAGGA	-0.19
CGGTCATC	-0.156
AGCCACTA	0.235
AAAATGGG	0.29
CACATTAC	0.117
AGCTCGGC	-0.00903
AGCTACTC	0.0304
GCTACATA	0.0508
CCACGACC	-0.0288
GAATCTCA	0.0763
CTCAGATC	-0.143
GAAGGTAA	0.0222
GGATTTAC	-0.0343
CCCCACGG	0.00992
ATATCCTA	-0.156
ACGTGCGG	-0.109
CTCTTCTA	0.0995
AAGAACTG	0.0143
ACTAATGC	0.0263
ACGCCGTC	0.105
